34 variants from the RNAGym collection of RNA variant scans (doi:10.1093/nar/gkz1192) can be followed below.

The source gives no read counts; variants with many changes may rest on few reads.

The labels stand for the following.
B1: CPEB3 Ribozyme (parent)
chain: UAACAGGGGGCCACAGCAGAAGCGUUCACGUCGCAGCCCCUGUCAGAUUCUGGUGAAUCUGCGAAUUCUGCUGUAUAUCUC

Variants of B1 are the subject of the data set. Nature of the data set: self-cleavage, relative activity (ratio to wild type); higher = more cleavage; in vitro, sequencing. The method in brief:
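Relative activity was defined as the cleaved/total read fraction for a variant divided by the same fraction for the unmutated ribozyme. CPEB3 self-cleaving ribozyme libraries were made by rounds of error-prone PCR, barcoded, and transcribed in vitro with T7 RNA polymerase for 5 hours at 37°C, and cleavage ran through transcription plus a 15 min DNase I step before EDTA. Illumina sequencing of template-switched reverse transcripts gave the reads, and DNA sequencing mapped the barcodes. Averages come from three batches, using variants with at least 5 reads.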
Turning to UAACAGGGGGCCACAGCAGAAGCGCUCACGUCGCAGCCUCUAUCAGGUUCUGGUGAAUCUGCGAAUUCUGCUGAAUAUCUC [U25C C39U G42A A47G U74A], the self-cleavage is 0.11.

With UAACAGGGGGCCACAGCAGAAGCGCUCACGUCGCAGCCCCUAUCAGAUACUGGUGAAUCUGCGAAUUCUGCUGUAUAUCUC [U25C G42A U49A], the self-cleavage is 0.04.

On to UAACAGGGGGCCACAGCAGAAGCGCUCACGUCACAGCCCCUGUCAGAUUCUGGUGAAUCUGCGAAUUCCGCCGUAUAUCUC [U25C G33A U69C U72C], for which the self-cleavage came to 0.06.

As to UAACAGGGGGCCACAGCAGAAGCGCUCACCUCGCAGCCCCUGUUAGAUUCUGGUGAAUCUGCGAAUUCUGCUGGAUAUCUC [U25C G30C C44U U74G], the self-cleavage stood at 0.2.

Take UAACAGGGGGCCACAGCAGAAGCGCUCACGUCGCAGCCCAUUUCAGAUUCUGGUGAAUCUGCGAAUUCUGCUGUAUAUCUC [U25C C40A G42U]: the self-cleavage worked out at 0.11.

As to UAACAGGGGGCCACAGCAGAAGCGCUCACGUCACAGCCCCUGUCAGAUUCUGGUGAAUCCGCGAACUCUGCUGUAUAUCUC [U25C G33A U60C U66C], the self-cleavage came to 0.11.

As to UAACAGGGGGCCACAGCAGAAGCGCUCACGUCACAGCCCCUGUCAGACUCUGGUGAAUCUGCGGAUUCCGCAGUAUAUCUC [U25C G33A U48C A64G U69C U72A], the self-cleavage turned out to be 0.04.

With UAACAGGGGGCCACAGCAGAAGCGCUCACAUCGCAGCCCCUGUCAGAUUCUGGUGAAUCUGCGAAUUCUGCUGUAUACCUC [U25C G30A U78C], the self-cleavage was 0.38.

Consider UAACAGGGGGCCACAGCAGAAGCGCACACGUCGCAGCCCCCGUCAGAUUCUGGUGAAUCUGCGAAUUCUGCUGUAUAGCUC [U25C U26A U41C U78G], for which the self-cleavage turned out to be 0.12.

In the case of UAACAGGGGGCCACAGCAGAAGCGCUCACGUCGCAGCCCCUGUCAGAUUCUGGUGAAUCUACGAAUUCUGCUGCAUAACUC [U25C G61A U74C U78A], the self-cleavage stood at 0.06.

Regarding UAACAGGGGGCCACAGCAGAAGCGCUCACGUCACUGCCCCUGUCAGAUUCUGGUGAAUCUGCGAAUUCUGCUGUAUAUCUC [U25C G33A A35U], the self-cleavage stood at 0.08.

As to UAACAGGGGGCCACAGCAGAAGCGCUCACGUCGCAUCCCCUGUCAGAUUCUGGUGAAUCUGCGAAUUCUGCUGUAUAUCUU [U25C G36U C81U], the self-cleavage is 0.04.

UAACAGGGGGCCACAGCAGAAGCGCUCACGUCGCAGCCCCUGUCACAUUCUGGUGAAUCCGCGAAUUCUGCUGUAUAUCUC [U25C G46C U60C]: the self-cleavage amounted to 0.08.

UAACAGGGGGCCACAGCAGAAGCGCUCACAUCGCAGCCCCUGCCAGAUUCUGGUGAAUCUGCGAAUUCUGCUGUAUAUCUC [U25C G30A U43C]: the self-cleavage amounted to 0.41.

As for UAACAGGGGGCCACAGCAGAAGCGCUCACGUCGCAGCCCCUGUCAGAUUCUGGUGAAUCUGCGAAUUCUGCUAUGUAUCUC [U25C G73A A75G], the self-cleavage turned out to be 0.09.

As for UAACAGGGGGCCACAGCAGAAGCGCUCACGUCGCAGCCCCUGUCAGAUUCUGGUCAGACUGCGAAUUCUGCUGUAUAGCUC [U25C G55C A57G U58A U78G], the self-cleavage is 0.09.

As for UAACAGGGGGCCACAGCAGAAGCGCUCACAUCGCAGCCCCCGUCAGAUUCUGGCGAAUCUGCGAAUUCAGCUGUAUACCUC [U25C G30A U41C U54C U69A U78C], the self-cleavage is 0.07.

For the variant UAACAGGGGGCCACAGCAGAAGCGCCCGCGUCGCAGCCCGUGUCAGAUUCUGGUGAAUCUGCGAAUUCUGCUGUAUAUCUC [U25C U26C A28G C40G], the self-cleavage was 0.22.

For UAACAGGGGGCCACAGCAGAAGCGCUCACGUCGCAGCCCCUGUCAGAUUUUGGUGGAUCUGCGAAUUCUGCUGUAUAUCUC [U25C C50U A56G], the self-cleavage was found to be 0.22.

Consider UAACAGGGGGCCACAGCAGAAGCGCUCACGUCACAGCCCCUGUCAGAUUCUGGUGAAUCUGCGAAUUCUGCCGUAUAUCUC [U25C G33A U72C], for which the self-cleavage was determined as 0.12.

For UAACAGGGGGCCACAGCAGAAGCGCUCACGUCGCAGCCCCUGUCAGAUUCUGGUGAAUCUGUGAAUUCUGCUGUAUAUCCC [U25C C62U U80C], the self-cleavage came out at 0.26.

With UAACAGGGGGCCACAGCAGAAGCGCUCACGUCGCAGCCCGUGCCAGAUUCUGGUGAAUCUGCGAAUUCUGCUGUAUAUCUC [U25C C40G U43C], the self-cleavage stood at 0.21.

With UAACAGGGGGCCACAGCAGAAGCGCUCACGUCGCAACCCCUGUCAGAUUCAGGUGAACCUGCGAAUUCUGCUGUAAAUCUC [U25C G36A U51A U58C U76A], the self-cleavage stood at 0.15.

UAACAGGGGGCCACAGCAGAAGCGCUCACGUCGCAGCCCCUGUCAGAUUCUGGUGAAUCUGCGAAUUUCGCCGUAUAUCUC [U25C C68U U69C U72C]: the self-cleavage was 0.05.

Regarding UAACAGGGGGCCACAGCAGAAGCGCUCACAUCGCAGCCCAUGACAGAUUCUGGUGAAUCUGCGAAUUCUGCAGUAUAUCUC [U25C G30A C40A U43A U72A], the self-cleavage was 0.09.

With UAACAGGGGGCCACAGCAGAAGCGCUCACGUCGCAGCCCCUGUCAUAUUCUGGUGUAUCUGCGAAUUCUGCCGUAUAUCUC [U25C G46U A56U U72C], the self-cleavage stood at 0.15.

Regarding UAACAGGGGGCCACAGCAGAAGCGCUCACGUCGCAGCCCCUGUCAGAUUCUGGUGAAUUUGCAAAUUCUGCUGUAUAUCUC [U25C C59U G63A], the self-cleavage worked out at 0.18.

In the case of UAACAGGGGGCCACAGCAGAAGCGCUCACGUCGCACUCCCUGUCAGAUUCUGGUGAACCUGCGAAUUCUGCUGUAUAUCCC [U25C G36C C37U U58C U80C], the self-cleavage was found to be 0.07.

UAACAGGGGGCCACAGCAGAAGCGCACACGUCGCAGCCCCUGUCAGAUUCUGGUGAAUCUGCGAAUUCUGCUGUAUCUCUC [U25C U26A A77C]: the self-cleavage was determined as 0.22.

On to UAACAGGGGGCCACAGCAGAAGCGCUCACAUCGCAGCCCCUGUCAGGCUCUGGUGUAUCUGCGAAUUCUGCUGUAUAUCUC [U25C G30A A47G U48C A56U], for which the self-cleavage worked out at 0.07.

Consider UAACAGGGGGCCACAGCAGAAGCGCUCACGUCGCAGCCCCUGUCAGAUUCUGCUGAAUCUGCGAAUCCAGCUGUAUGUCUC [U25C G53C U67C U69A A77G], for which the self-cleavage is 0.22.

Take UAACAGGGGGCCACAGCAGAAGCGCUCACAUCGCAGCCCCUGUCUGACUCUGGUGAAUCUGCGAAUUCUGCAGUAUGUUUC [U25C G30A A45U U48C U72A A77G C79U]: the self-cleavage was 0.1.

Turning to UAACAGGGGGCCACAGCAGAAGCGCUCACGUCGCAGCCCGUGUCAGAUUCUGGUGAAUCUGCGAAUACUGCUGUAUAUCUC [U25C C40G U67A], the self-cleavage worked out at 0.12.

In the case of UAACAGGGGGCCACAGCAGAAGCGCUCACGUCACAGCCCCUGUCAGAUUCUGGUGAAUCUGCGAAUUCUGCUGUAUAUCGC [U25C G33A U80G], the self-cleavage amounted to 0.16.
